From the supplement of paper PMC4967469 come the findings set out here.

Compound in this test: Nc1[nH]nc2nnc(-c3c(-c4ccccc4)nn4ccccc34)cc12 [FR-180204]
As to the kind of experiment: Viability of human cancer cell lines after 72 h of drug (GDSC screen). The conditions noted are these: top dose 20 µM; top dose inferred. On the procedure:
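Human cancer cell lines in 384-well plates, medium with 10% serum, drug for 72 h over a 256-fold dose range (nine 2-fold or five 4-fold steps up to the top dose). Adherent lines were fixed and stained with the nucleic acid dye Syto60, suspension lines read with resazurin; signal relative to control wells, capped at 0 and 100%. One two-parameter sigmoid per drug and line, fitted in a mixed model over all curves with the slope shared within a line.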

Lines with a small IC50 respond at low doses; where the fit passes the top or lowest dose, that dose stands as a limit. AUC sums up the same curve from the lowest dose to the 256-fold higher top dose; values near 1 show little effect. The top dose, if marked as inferred, was calculated from the reported fits. Where only a bound is given, the exact number is not on record here.

Take 201T (lung adenocarcinoma, adherent): the AUC was 0.951 and the IC50 (commonly the concentration at which inhibition is half-maximal) is greater than 20 µM.

As to A2058 (melanoma, adherent), the AUC is 0.99 and the IC50 is greater than 20 µM.

A2780 (ovary, semi-adherent): the AUC turned out to be 0.925 and the IC50 is greater than 20 µM.

AGS (stomach, adherent): the AUC amounted to 0.988 and the IC50 was greater than 20 µM.

As to AU565 (breast, adherent), the AUC was found to be 0.969 and the IC50 is greater than 20 µM.

For BB30-HNC (head and neck, adherent), the AUC stood at 0.963 and the IC50 is greater than 20 µM.

For BC-3 (B-cell lymphoma, suspension), the AUC was 0.98 and the IC50 is greater than 20 µM.

As to BICR31 (head and neck, adherent), the AUC was determined as 0.971 and the IC50 was greater than 20 µM.

Turning to CAL-148 (breast, suspension), the AUC turned out to be 0.987 and the IC50 is greater than 20 µM.

With CAPAN-1 (pancreas, adherent), the AUC was determined as 0.953 and the IC50 is greater than 20 µM.

In the case of CHP-134 (neuroblastoma, suspension), the AUC is 0.965 and the IC50 was greater than 20 µM.

Consider “COR-L303 (small cell lung carcinoma, suspension)”, for which the AUC was found to be 0.97 and the IC50 is greater than 20 µM.

As for “COR-L311 (small cell lung carcinoma, suspension)”, the AUC was 0.984 and the IC50 was greater than 20 µM.

Turning to “CTV-1 (acute myeloid leukaemia, suspension)”, the AUC was 0.976 and the IC50 is greater than 20 µM.

For the cell line Calu-3 (lung adenocarcinoma, adherent), the AUC turned out to be 0.983 and the IC50 is greater than 20 µM.

As for Caov-3 (ovary, adherent), the AUC amounted to 0.97 and the IC50 is greater than 20 µM.

As for DJM-1 (skin, adherent), the AUC was found to be 0.981 and the IC50 was greater than 20 µM.

In the case of ES-2 (ovary, adherent), the AUC is 0.991 and the IC50 was greater than 20 µM.

Take EW-11 (Ewing sarcoma, adherent): the AUC is 0.911 and the IC50 is greater than 20 µM.

For the cell line FADU (head and neck, adherent), the AUC was determined as 0.986 and the IC50 is greater than 20 µM.

GCIY (stomach, adherent): the AUC is 0.971 and the IC50 is greater than 20 µM.

With H-EMC-SS (chondrosarcoma, adherent), the AUC came to 0.931 and the IC50 is greater than 20 µM.

Consider HCC1599 (breast, suspension), for which the AUC was determined as 0.958 and the IC50 is greater than 20 µM.

On to “HCC-33 (small cell lung carcinoma, adherent)”, for which the AUC was determined as 0.986 and the IC50 is greater than 20 µM.

Turning to Hep 3B2_1-7 (liver, adherent), the AUC was 0.985 and the IC50 was greater than 20 µM.

Consider HuP-T4 (pancreas, adherent), for which the AUC turned out to be 0.983 and the IC50 is greater than 20 µM.

For the cell line IGR-1 (melanoma, adherent), the AUC amounted to 0.981 and the IC50 was greater than 20 µM.

JHU-011 (head and neck, adherent): the AUC came out at 0.971 and the IC50 was greater than 20 µM.

Regarding JSC-1 (B-cell lymphoma, suspension), the AUC worked out at 0.964 and the IC50 was greater than 20 µM.

Take KMS-12-BM (myeloma, suspension): the AUC is 0.971 and the IC50 was greater than 20 µM.

For KP-3 (pancreas, adherent), the AUC was determined as 0.968 and the IC50 was greater than 20 µM.

KP-N-YS (neuroblastoma, adherent): the AUC is 0.969 and the IC50 is greater than 20 µM.

For the cell line KYSE-140 (oesophagus, adherent), the AUC was 0.911 and the IC50 is greater than 20 µM.

With KYSE-150 (oesophagus, adherent), the AUC was determined as 0.979 and the IC50 is greater than 20 µM.

In the case of KYSE-410 (oesophagus, adherent), the AUC amounted to 0.982 and the IC50 was greater than 20 µM.

For the cell line “LK-2 (lung squamous cell carcinoma, adherent)”, the AUC was determined as 0.989 and the IC50 was greater than 20 µM.

On to MDA-MB-157 (breast, adherent), for which the AUC stood at 0.987 and the IC50 was greater than 20 µM.

Consider MDA-MB-468 (breast, adherent), for which the AUC was 0.985 and the IC50 was greater than 20 µM.

Consider MHH-NB-11 (neuroblastoma, adherent), for which the AUC was 0.936 and the IC50 was greater than 20 µM.

MIA-PaCa-2 (pancreas, adherent): the AUC was determined as 0.982 and the IC50 is greater than 20 µM.

In the case of MKN28 (stomach, adherent), the AUC worked out at 0.953 and the IC50 is greater than 20 µM.

Turning to “ML-2 (acute myeloid leukaemia, suspension)”, the AUC stood at 0.936 and the IC50 was greater than 20 µM.

Regarding MSTO-211H (mesothelioma, adherent), the AUC was 0.991 and the IC50 is greater than 20 µM.

Consider MY-M12 (leukaemia, suspension), for which the AUC stood at 0.829 and the IC50 is 14.7 µM.

Turning to NALM-6 (B-cell leukaemia, suspension), the AUC came to 0.911 and the IC50 was greater than 20 µM.

NB14 (neuroblastoma, adherent): the AUC stood at 0.968 and the IC50 was greater than 20 µM.

Consider NB17 (neuroblastoma, adherent), for which the AUC came to 0.964 and the IC50 was greater than 20 µM.

Take NB69 (neuroblastoma, adherent): the AUC came to 0.956 and the IC50 was greater than 20 µM.

With “NCI-H64 (small cell lung carcinoma, suspension)”, the AUC came to 0.995 and the IC50 is greater than 20 µM.

For the cell line “NCI-H82 (small cell lung carcinoma, suspension)”, the AUC was found to be 0.985 and the IC50 was greater than 20 µM.

For “NCI-H510A (small cell lung carcinoma, semi-adherent)”, the AUC came to 0.967 and the IC50 was greater than 20 µM.

On to “NCI-H647 (non-small cell lung carcinoma, adherent)”, for which the AUC turned out to be 0.97 and the 50% inhibitory concentration (IC50) is greater than 20 µM.

As to “NCI-H748 (small cell lung carcinoma, suspension)”, the AUC was determined as 0.981 and the IC50 is greater than 20 µM.

Turning to “NCI-H1734 (lung adenocarcinoma, adherent)”, the AUC is 0.98 and the IC50 was greater than 20 µM.

“NCI-H1963 (small cell lung carcinoma, suspension)”: the AUC was 0.99 and the IC50 is greater than 20 µM.

With NCI-H2052 (mesothelioma, adherent), the AUC was found to be 0.976 and the IC50 was greater than 20 µM.

For the cell line “NCI-H2171 (small cell lung carcinoma, suspension)”, the AUC was 0.992 and the IC50 was greater than 20 µM.

For “NCI-H2196 (small cell lung carcinoma, adherent)”, the AUC came out at 0.947 and the IC50 is greater than 20 µM.
